Data published in paper PMC12136788.
Some of the results follow.

B1: 21566091_21566211_1653_CDS_ENSMUSG00000042453_ENSMUST00000161356|mouse|control|control (ssRNA)
RNA: GGGAGUUCUACAGUCCGACGAUCGCCAUAACCAGUUGUAUCCAUGUAGGGGGUGCAAAGCUUCCUCUCUCCAUCUUUGAGGAACACCAGUGAUAGUCCUGAUUCUACGGUUCCACAGUCUGCACCAACUACUGCUCCCAAGAUCAACAGAGGAUUGAGCAUCA
B2: chr19:34954956:34954957:+_ENSG00000126261_ENST00000246548|hu_mus|FALSE|FALSE (ssRNA)
RNA: GGGAGUUCUACAGUCCGACGAUCGAUCAGCAAAGUAUAGUCCUGGAGGAAGUCGUCUGCUUGAAGCCGGCUGCCGUUUCUAAUUCCAAAAUCAGACAACUUCUUGGGGUUAUUGGCUUCUGUCUCUCCCUCUUCUGAAGAUAUCAACAGAGGAUUGAGCAUCA
B3: chr10:7519382:7519383:+_ENSMUSG00000015757_ENSMUST00000015901|mus_mus|motif|central (ssRNA)
RNA: GGGAGUUCUACAGUCCGACGAUCAGGCUCGGGUGAUCGAUCAGGAAUUAAUAAAUCAGGAGGGUCAUCAAAUGGAUCAUCGGAAAUCACUGUAUGAUUUAUCCUUAUAUCUUGAUAUGGUACAAAAUCCUUGUCCACAAAGGUCAACAGAGGAUUGAGCAUCA
B4: chr1:115282363:115282364:-_ENSG00000009307_ENST00000339438|perfect_dup|motif|central (ssRNA)
RNA: GGGAGUUCUACAGUCCGACGAUCAUCAUCUCCUACUUUUAAGUCUUGCAGGUUGCCAUUAUACUGUGAACAGUGGAAGAAAAGUCGGGCUUGACGUUCUGAACACUGAAUAAAUCCGUAAGAGGUUAACAGUUUUUCAAUAACCAACAGAGGAUUGAGCAUCA
B5: chr11:115359187:115359188:-_ENSMUSG00000020737_ENSMUST00000021083|mus_mus|motif|central (ssRNA)
RNA: GGGAGUUCUACAGUCCGACGAUCGUACAUAAGAGUCUCUACACAUCAGGAACCAGAUCAUCUGUUCUUAGAAACAGUCGGCGGCUCCAGUCUACUACUAGAAAACACUCAUGCCAUGGCGCACAGACCCAGGAGUCAGACAGACAACAGAGGAUUGAGCAUCA
B6: chr6:38652254:38652255:-_ENSG00000124767_ENST00000373365|hu_hu|hu_hu_hu_mus_False|68_88 (ssRNA)
RNA: GGGAGUUCUACAGUCCGACGAUCCGAGAACUUCAUAGCAGGGAAGUCACAUUUUUGCAGGAGGGUCAUUCCAAGAACCCUCGUAUAAAAAUCCAGGGACUUCUUAGGAUCCUUAAUUCUUAGCAUCGUUUGCUGCAGUAGAAACAACAGAGGAUUGAGCAUCA
B7: chr17:13113627:13113628:+_ENSMUSG00000068039_ENSMUST00000151287|mus_mus|FALSE|FALSE (ssRNA)
RNA: GGGAGUUCUACAGUCCGACGAUCAAGCUUCAUUUUUGUUUUCUGCAGGCUGAAGUCAAGACAAGCAAUUUUUGCAUUAACUAUUCUCUUGGGCAUGCCCUGAGAUCCAACCACACAAUUGAGCGCAUAGCCAUUGAUCAGCAUCAACAGAGGAUUGAGCAUCA
B8: chr9:45784209:45784210:-_ENSMUSG00000003131_ENSMUST00000172450|mus_mus|FALSE|FALSE (ssRNA)
RNA: GGGAGUUCUACAGUCCGACGAUCGGAGUCCCCCACAAACAGCACAUCUGGUUCUUUGUCUUUACAGUCCAGAACAAACCUAUUAUGCUGAGACAUCCACCUGUCAUCUCCUUGAAUAUCUUCUGCGGCAUGUGGAAUAGCUGCCAACAGAGGAUUGAGCAUCA
B9: chr1:39494447:39494448:+_ENSG00000168653_ENST00000372967|hu_mus|hu_hu_hu_mus_False|8_28 (ssRNA)
RNA: GGGAGUUCUACAGUCCGACGAUCGCACCGAGCGGCGUUCUUAUAGGGCUGUUCUGCGCUUAGGAACAUAAAGUGCCGGUCCAGGCUGAUGCCCAGCUUUUUCUGUAUGUCCAAGAAAGGCAUGGCUGAUGCUCGUGCUUGUCACAACAGAGGAUUGAGCAUCA
B10: chr12:112777701:112777702:+_ENSMUSG00000021282_ENSMUST00000166123|mus_hu|FALSE|FALSE (ssRNA)
RNA: GGGAGUUCUACAGUCCGACGAUCCGGUCUCUGACAUGAAAAAAUUUUCGCCACUGAGGCUGUAAGCUUCUUGCUUGUAUGCUAUGUUUCCCCAAUACAGGUACCAAUGGCUGCGCAACAGCUCUGAAAGAAAAAGGGAAAGAACAACAGAGGAUUGAGCAUCA
B11: chr3:10015032:10015033:+_ENSMUSG00000027533_ENSMUST00000029046|mus_mus|mus_mus_mus_hu_True|38_78 (ssRNA)
RNA: GGGAGUUCUACAGUCCGACGAUCGUUUUUACCAUCACAAGUGAUGAUACAAUCUGGCUUGGCCAUGGCGCCCAUUUUUCGCAAAGCUAUUCCCACUCCUAGCUCUUUCAUGUAUUCAUCAAAGCCUUUGCUGUCCACCAGGCGCAACAGAGGAUUGAGCAUCA
B12: chr18:54424204:54424205:+_ENSG00000091157_ENST00000357574|hu_hu|motif|central (ssRNA)
RNA: GGGAGUUCUACAGUCCGACGAUCCCAGGCGUGAAGGCAGGACAUAAACAGCUUUGCAGUGUCCAUAGUUAAAUUAUAUUCGGAUAGGGUCAAUGGCUUUGAUUUGCUGGACCGAUAUUCAGGAUCACUUUCUUCCCUUCUCUGCAACAGAGGAUUGAGCAUCA
B13: 125322355_125323946_4145_CDS_ENSMUSG00000030655_ENSMUST00000032891|mouse|control|control (ssRNA)
RNA: GGGAGUUCUACAGUCCGACGAUCGGAUUUCUGAAGCUCCCGUGGGUCUGGGCUUAGCAUGUUAGGAAGCAGCUUUUUCAUAUCUAUUUUUUCUUUUGACCCUCCAGCAAGUAGAUUAAUAUUUUCUCCUGGUAAUAAUUCCAACAACAGAGGAUUGAGCAUCA
B14: chr11:48616917:48616918:+_ENSMUSG00000020372_ENSMUST00000020640|mus_hu|FALSE|FALSE (ssRNA)
RNA: GGGAGUUCUACAGUCCGACGAUCGACGAUGAUAGGGUUGCUGCUGUUGGGCGAGAAGCGGACACAAGACACCCACUCUGAGUGGCUCUCAUCCUGGACAGUGUAUUUGCACACACCCAGGGUAUUCCAUAGCUUGAUGGUUUUCAACAGAGGAUUGAGCAUCA

What follows are binders tested against T1, UNK ZnF1-3 (human, UniProt Q9C0B0 31-174) (assay: nsRBNS (natural sequence RNA bind-n-seq); RBNS binding buffer (assumed for nsRBNS): 25 mM Tris pH 7.5, 150 mM KCl, 3 mM MgCl2, 0.01% Triton X-100, 500 ug/ml BSA, 20 U/ml SUPERase-In, 4 C; UNK is unkempt and MSI1 is Musashi-1; names of the RNAs are library labels; protein concentration not given here; high values mean tight binding).
T1 sequence: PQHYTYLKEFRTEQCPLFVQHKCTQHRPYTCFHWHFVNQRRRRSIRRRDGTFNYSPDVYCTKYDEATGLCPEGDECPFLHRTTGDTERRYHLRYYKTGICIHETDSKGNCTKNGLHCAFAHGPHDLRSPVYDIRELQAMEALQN

| Binder | binding signal [enrichment R] |
| --- | --- |
| B1 | 0.949 |
| B2 | 1.09 |
| B3 | 0.8 |
| B4 | 1.55 |
| B5 | 1.19 |
| B6 | 0.795 |
| B7 | 0.795 |
| B8 | 0.676 |
| B9 | 0.726 |
| B10 | 1.7 |
| B11 | 0.741 |
| B12 | 1.29 |
| B13 | 1.02 |
| B14 | 0.582 |
